# Data: PubChem BioAssay AID2546 (National Center for Advancing Translational Sciences (NCATS), 2010)
# Among all 310,000 compounds or so, about 11,000 (3.5%) were called active. This list was built around the results that the source calls inconclusive (neither active nor inactive); the mix of calls is not that of the screen. Calls come from the whole dose curve; as a rule, active = well fitted inhibition curve with a large enough effect; inconclusive = small, poorly fitted or top-dose-only effect, or effect the other way; inactive = flat fitted curve, though single readings scatter. No potency is given beside an inconclusive call; the fits are too rough.
# Assay: VP16 counterscreen qHTS for inhibitors of ROR gamma transcriptional activity;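 note: Gal4-VP16 expression switched on by copper sulfate through the metallothionein promoter; nearly all actives have a fitted effect of over 50% in size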
# Details: Drosophila S2 Gal4-VP16 UAS-luciferase, luminescence, 20 h; series mostly up to 53.6 µM; activity, negative = inhibition: at the top concentration
# % is set by controls: 0 for no effect and ±100 for the full control effect; potency is the fitted concentration of half-maximal effect; tags give direction and shape of the fitted curve.
SMILES,Potency,"activity, negative = inhibition"
Nc1ccc2nc3c(c(Cl)c2c1)CCCC3,"inconclusive [inhibitor, single point]",–
NC(N)=NN=C(/C=C/c1ccc([N+](=O)[O-])o1)/C=C/c1ccc([N+](=O)[O-])o1,"inconclusive [inhibitor, full curve, poor fit]",–
c1ccc2c(c1)[I+]c1ccccc1-2,"inconclusive [inhibitor, full curve, poor fit]",–
CC[C@H](C)[C@H](NC(=O)CN)C(=O)N[C@@H](CC(C)C)C(=O)NCC(=O)N[C@@H](Cc1ccccc1)C(=O)N[C@H](C(=O)N[C@@H](Cc1ccccc1)C(=O)N[C@H](C(=O)N[C@@H](CC(C)C)C(=O)O)[C@@H](C)O)C(C)C,–,inactive: -3.16%
Cc1cccc(CCNCc2cc3cccc(C)c3[nH]c2=O)c1,active: 7.94 µM,–
C/C(=N\Nc1cccc2ccccc12)c1c(O)n(Cc2ccccc2)c(=O)[nH]c1=O,–,inactive: -7.29%
COC(=O)[C@@H]1C[C@H]1[C@@H](NP(=O)(c1ccccc1)c1ccccc1)c1ccccc1,"inconclusive [activator, partial curve]",–
ClC1=C(Cl)C(Cl)(Cl)C(Cl)=C1Cl,"inconclusive [inhibitor, single point]",–
COc1ccc(/C=C2/C(=O)NC(=O)N(C3CCCCC3)C2=O)cc1CSc1ccccn1,"inconclusive [inhibitor, single point]",–
CC(C)c1ccc(C2NCc3ccccc3-n3cccc32)cc1 (stereo not given),"inconclusive [inhibitor, single point]",–
CC[C@@]1(O)C(=O)OCc2c1cc1n(c2=O)Cc2cc3c(N)cccc3nc2-1,active: 0.355 µM,–
CC1=CC(=C2C(=O)NC(=S)NC2=O)C=C(C(F)(F)F)N1Cc1ccccc1,"inconclusive [inhibitor, single point]",–
CCCCCn1c(=O)c(C(=O)Nc2nc(CC(=O)OCC)cs2)c(O)c2ccccc21,–,inactive: -16.6%
CNC(=O)O/N=C(\N)Cc1csc2ccc(Cl)cc12,"inconclusive [inhibitor, partial curve]",–
C/C(=N\NC(=O)c1ccccc1Cl)c1c(O)n(C2CCCCC2)c(=O)[nH]c1=O,active: 11.2 µM,–
O=c1c2cc(N3CCOCC3)ccc2[nH]c(=S)n1Cc1ccc(Cl)cc1,active: 0.562 µM,–
CC(C)COC(=O)n1c(=O)oc2ccc(S(=O)(=O)N3CCCCC3)cc21,"inconclusive [inhibitor, single point]",–
Cn1c(O)c(C2=NNC(c3ccc(Cl)cc3)C2)c(=O)n(C)c1=O (stereo not given),active: 5.01 µM,–
COc1ccc(Cn2c(O)c(/C=N/NC(=O)c3ccccc3O)c(=O)[nH]c2=O)cc1,"inconclusive [inhibitor, single point]",–
CCOc1cccc(C2NCc3ccccc3-n3cccc32)c1O (stereo not given),–,inactive: -2.51%
CCCCCC1CC(CC(=O)NC(=S)Nc2ccc([N+](=O)[O-])cc2)C(=O)O1 (stereo not given),"inconclusive [inhibitor, full curve, poor fit]",–
O=C(Nc1nccs1)C(Cl)(Cl)Cl,"inconclusive [inhibitor, single point]",–
CC1CN=C(Nc2ccccc2)S1 (stereo not given),"inconclusive [inhibitor, partial curve, poor fit]",–
C#Cc1cccc2c1c(C(=O)c1ccc(Cn3c(C)nc4cnccc43)c(F)c1)cn2C(=O)N(C)C,–,inactive: 3.9%
COc1ccc(N=Nc2c(O)[nH]c(=S)[nH]c2=O)cc1,"inconclusive [inhibitor, single point]",–

SMILES,Potency,"activity, negative = inhibition"
CC1CCCC(C)N1c1nnc(NC(=O)Cn2c(=O)oc3ccccc32)s1 (stereo not given),active: 14.1 µM,–
CCC1CN2CCc3cc(OC)c(OC)cc3C2CC1CC1NCCc2cc(OC)c(OC)cc21 (stereo not given),active: 7.08 µM,–
CCCCCCn1c(=O)c(C(=O)Nc2ncccc2C)c(O)c2ccccc21,active: 7.94 µM,–
CC12CCC3C(CCC4C/C(=N/O)CCC43C)C1CCC2O (stereo not given),"inconclusive [activator, single point]",–
COc1ccc(CCNC2CCCCCC2)cc1,–,inactive: -0.413%
O=C1NC(=O)C2(C(=O)N1)C(c1ccc(F)cc1)NC(=S)NC2c1ccc(F)cc1 (stereo not given),–,inactive: 4.22%
O=C(CN1CCCCC1)c1cccc(Br)c1,"inconclusive [inhibitor, single point]",–
COc1ccc(OCc2n[nH]c(=S)n2Cc2ccco2)cc1,"inconclusive [inhibitor, single point]",–
Cc1c(N=Nc2c(O)n(Cc3ccccc3)c(=O)[nH]c2=O)c(=O)n(-c2ccccc2)n1C,–,inactive: 3.62%
CN1CCN(C(=O)COc2ccc(-c3nc4ccccc4s3)cc2)CC1,active: 10 µM,–
O=C(Oc1ccc2ccc(OC(=O)N3CCCCCC3)cc2c1)N1CCCCCC1,"inconclusive [inhibitor, single point]",–
CC1=C/C(=N\NC(=S)NCCc2ccccc2)CC(C)(C)C1,"inconclusive [inhibitor, single point]",–
O=C1NC(=O)C(=Cc2cccc(OCCOc3ccccc3)c2)C(=O)N1,"inconclusive [inhibitor, partial curve]",–
OC(c1ccc(F)cc1)(c1ccc(F)cc1)[C@@H]1CCCN1,–,inactive: -2.54%
C=CCn1c(O)c(C(C)=Nc2ccc(N(C)C)cc2)c(=O)[nH]c1=O,–,inactive: -1.63%
O=C(c1ccccc1)C(CN1CCCC1)c1ccccc1 (stereo not given),active: 4.47 µM,–
CCCCn1c(=O)c(C(=O)NCc2ccccc2)c(O)c2ccccc21,"inconclusive [inhibitor, single point]",–
Cc1nc(C(=O)O)nn1-c1ccc([N+](=O)[O-])cc1,"inconclusive [activator, single point]",–
CCn1ccnc1CN1CCCC(C(=O)c2cc(Cl)ccc2OC)C1 (stereo not given),–,inactive: -27.1%
CC(C)Sc1nnc(OC(=O)N(C)C)n1-c1ccccc1,–,inactive: 2.49%
COC(=O)[C@@]1(Cc2ccccc2)[C@H]2c3cc(C(=O)N(C)C)n(C)c3C[C@H]2CN1C(=O)c1ccccc1,–,inactive: -3.7%
CCC(=Nc1ccc2c(c1)CCC2)c1c(O)n(-c2ccc(OC)cc2)c(=O)[nH]c1=O,"inconclusive [inhibitor, single point]",–
COc1ccc(CC2NC[C@H](O)[C@H]2OC(C)=O)cc1 (stereo not given in full),active: 0.794 µM,–
CC/C(=N\N1CCCCCC1)c1c(O)n(-c2ccccc2C)c(=O)[nH]c1=O,"inconclusive [inhibitor, single point]",–
CC1CC2CCC(O2)C(C)C(=O)OC(C)CC2CCC(O2)C(C)C(=O)OC(C)CC2CCC(O2)C(C)C(=O)OC(C)CC2CCC(O2)C(C)C(=O)O1 (stereo not given),active: 0.501 µM,–
